The campaign covered roughly 48,000 compounds. About 450 (0.94%) were called active. About 19% were inconclusive and are not listed. The call rests on the fitted dose curve; in most records, active means well fitted inhibition curve with a large enough effect; inconclusive means small, poorly fitted or top-dose-only effect; inactive means no such curve, though single readings can be large or run the other way. This is one part of the list.
Experiment: Primary qHTS for Identification of Small Molecule Inhibitors of Huntingtin Promoter Activity; further: nearly all actives have a fitted effect of over 50% in size
Conditions: HEK293 HTT promoter firefly luciferase reporter (activity 0% = vehicle and -100% = no light), 24 h; series mostly up to 57.5 µM; activity change, negative = inhibition: at the top concentration
Outline: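 Firefly luciferase signal from promoter-reporter HEK293 cells was scaled between vehicle (0%) and zero RLU (-100%). Compounds were tested at final concentrations of up to 57.5 uM over 24 h at 37 degrees C. PTC124 at 50 uM final served as control inhibitor.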

Activity change, negative = inhibition, inactive:
CCOC(=O)c1sc2ncn(CC(=O)Nc3ccc(C)cc3Br)c(=O)c2c1C -6.66%, COc1ccccc1-n1c(/C=C/c2c(C)n(C)c3ccccc23)nc2ccccc2c1=O -21.7%, CCOc1ccc(OCC(=O)Nc2nnc3n2CCS3)cc1 2.7%, CCOc1ccc(Sc2cc(C(=O)NCCc3ccccc3)c3ccccc3n2)cc1 -19.1%, COc1cccc(CNC(=O)C2CCC(CNS(=O)(=O)c3ccc(Br)s3)CC2)c1 (stereo unspecified) -9.02%, CCOC(=O)C(Cc1c[nH]c2ccccc12)NC(=O)COc1ccc(Cl)c(C)c1 (stereo unspecified) -8.55%, CCOc1nc(NC(=O)NS(=O)(=O)Oc2ccccc2)nc(-c2ccccc2)n1 38.5%, O=S(=O)(c1ccc2c(c1)CCN2)N1CCCCCC1 3.16%, CCc1ccc(NCc2cc3cc(OC)c(OC)cc3n(CC(=O)Nc3cc(C)ccc3C)c2=O)cc1 -17.8%, CCC(C)OC(=O)/C(C#N)=C\c1ccc(-c2cccc(C(F)(F)F)c2)o1 (stereo unspecified) -26.1% [at 11.5 µM], COc1ccc(S(=O)(=O)N(CC(=O)NCc2ccccc2)c2ccc(C)cc2)cc1OC 62%, O=C(Cn1c(=O)nc(-c2ccccc2)c2ccccc21)NCc1ccc(F)cc1 -9.26%, Cc1cc(O)c(C(c2ccccc2)N2CCN(C)CC2)c(=O)n1Cc1ccco1 (stereo unspecified) -4.42%, O=C(Nc1ccccc1)N(Cc1ccc(F)cc1)c1ccccn1 -7.48%, C=Cc1ccc(CN2C(=O)c3ccccc3Sc3ccc(C(=O)OCc4ccco4)cc32)cc1 -28.6%, COc1ccc(-c2noc(CN(C(C)C)S(=O)(=O)c3ccc(Br)cc3)n2)cc1 -13.7%, CC1=C(C(=O)N2CCN(c3cccc(C)c3C)CC2)C2(CCCCC2)OC1=O -6.48%, Cc1cccc(NC2=CC(c3cccc(Br)c3)N(c3cccc(C)c3)C2=O)c1 (stereo unspecified) -8.31%, CCOC(=O)c1c(C)[nH]c(C)c1S(=O)(=O)NCC(=O)N1CCN(c2cccc(C)c2)C(C)C1 (stereo unspecified) -29.4%, Cc1ccc(CNC(=O)c2c(O)nc3c(C)cccn3c2=O)cc1 -18.4%, CCN(CC)CCCNC(=O)c1ccc2c(c1)NC(=O)C(CS(=O)(=O)Cc1cccc(Br)c1)N2 (stereo unspecified) -14.2%, COc1ccc(Br)cc1CNC(=O)c1nn(-c2ccc(C)cc2)c(=O)c2c1c1ccccc1n2C -17.4%, NC(=O)NO 0.564%, Cc1ccccc1-c1noc(-c2cccnc2N(C)Cc2ccc(Cl)cc2)n1 -21.3%, O=C(C1CC1)N1CCN(c2nc3c(Cl)cccc3s2)CC1 -8.38%, CO/N=C1\CN(c2nc3c(cc2F)c(=O)c(C(=O)O)cn3C2CC2)CC1CN (stereo unspecified) 0.589%, COc1ccc(CCNC(=O)CSc2nnnn2-c2cccc(C(C)=O)c2)cc1OC -2.38%, CCOC(=O)c1ccc(NC(=O)c2csnn2)cc1 50.2%, CC1CCN(S(=O)(=O)c2ccc3c(c2)N(CC(=O)NC(C)C)C(=O)CO3)CC1 -13%, COc1cccc(CNC(=O)CSc2ncc(S(=O)(=O)c3ccc(Br)cc3)c(=O)[nH]2)c1 -5.16%, COc1ccc(CNC(=O)CSc2ncc(S(=O)(=O)c3ccc(C)c(Cl)c3)c(=O)[nH]2)cc1 -10.6%, CC1CCN(S(=O)(=O)c2ccc3c(c2)CCN3C(=O)Nc2ccc(Br)cc2)CC1 11.6%, Cc1ccccc1C(=O)N1CCN(CCc2ccccn2)CC1 -10.6%, Cc1c(C(=O)Nc2ccc(C(C)C)cc2)sc2nc[nH]c(=O)c12 37.3%, CC1=C(C(=O)Nc2ccc(C)cc2C)C(c2ccc(C(=O)O)cc2)n2nc(SCc3ccccc3)nc2N1 (stereo unspecified) -2.22%, CCOc1ccc(CNC(=O)CC(C)n2nc(C)cc2C)cc1OC (stereo unspecified) -6.42%, Cc1ccc2c(c1)c1c(c(=O)n(-c3ccccc3)c(=O)n1CC(=O)c1ccc(F)cc1)n2C -0.848%, Cc1ccc(NC(=O)c2ccc(CN3CC(=O)N4CCCCC4C3=O)cc2)cc1 (stereo unspecified) -9.04%, CCc1cccc(NC(=O)Cn2c(=O)n(-c3cccc(Cl)c3)c(=O)c3c2c2cc(C)ccc2n3C)c1 -9.96%, COc1ccc(OC)c(CNC(=O)c2cnc3c(C)cccn3c2=O)c1 9.12%, CCc1nn2c(=O)cc(COC(=O)c3ccc(NC(=O)COc4ccc(C)cc4)cc3)nc2s1 -21.7%, Cn1c(SCC(=O)N2CCCc3ccccc32)ncc(C(=O)Nc2ccccc2)c1=O -15%, CC[C@]1(O)C[C@@H]2CN(CCc3c([nH]c4ccccc34)[C@@](C(=O)OC)(c3cc4c(cc3OC)N(C)[C@H]3[C@@](O)(C(=O)OC)[C@H](OC(C)=O)[C@]5(CC)C=CCN6CC[C@]43[C@@H]65)C2)C1, Cc1ccc(C(=O)COC(=O)C(Cc2c[nH]c3ccccc23)NC(=O)c2ccc(C(C)(C)C)cc2)cc1 (stereo unspecified) -11.7%, CSc1ccc(Cn2nnc(C(=O)Nc3ccc(C)cc3Cl)c2N)cc1 4.5%, Cc1cc(C)cc(NC(=O)CSc2nc(=O)n(Cc3ccccn3)c3c2CCC3)c1 3.13%, CCOC(=O)C(C)Sc1nc(-c2ccccc2Cl)cc(-c2ccccc2)c1C#N (stereo unspecified) -24.2%, Cc1ccc2[nH]c(=O)c(CN(C(=O)c3cccc(Cl)c3)C(C)(C)C)cc2c1 -17.1%, Cc1ccccc1C(=O)Nc1cccc(C(=O)OCc2cc(=O)n3ccsc3n2)c1 -1.4%, Cc1cccc(Oc2nc3c(c(=O)n(C)c(=O)n3C)n2Cc2ccccc2)c1C -1.22%, Cc1cccc(C)c1OCc1cc(=O)n2c3c(sc2n1)CCCC3 -2.98%, Cc1cc(C)cc(NC(=O)Nc2nnc(N(C)C3CCCCC3)s2)c1 -13.7%, COc1ccccc1-c1noc(CCCC(=O)NCc2ccco2)n1 -12.9%, CCOc1ccc(CCNc2nc3ccccc3n3c(C)nnc23)cc1OCC -11.1%, COc1cc(NC(=O)Cn2c(=O)n(CC3CCCO3)c(=O)c3ccccc32)cc(OC)c1 (stereo unspecified) -4.98%, COc1ccc(C(=O)Nc2nnc(C(C)C)s2)cc1OC 72.6%, COc1ccc2sc(N(Cc3cccnc3)C(=O)COc3ccccc3)nc2c1 -16.5%, Cc1ccc(NC(=O)c2cc3nc(-c4ccccc4)cc(-c4ccccc4)n3n2)cc1 4.02%, CCn1cnc2c(=O)oc3ccc(S(=O)(=O)Nc4ccc(OC)cc4)cc3c21 -5.44%, COc1ccc(CCNC(=O)c2ccc(Cn3c(=O)c4ccccc4n(Cc4cccc(C)c4)c3=O)cc2)cc1OC -7.01%, CCOCCCn1c(=N)c(C(=O)NC2CCCC2)cc2c(=O)n3cc(C)ccc3nc21 1.68%, COc1ccccc1Cc1nc2ccccc2nc1SCC(=O)Nc1cc(Cl)ccc1OC -9.76%, CCOC(=O)c1c(S(=O)(=O)N2CCC(C(=O)Nc3ccc(C)cc3C)CC2)c(C)n(C)c1C -8.6%, Cc1cc(C)cc(NC(=O)c2cnc3sc(N4CCCC4)nn3c2=O)c1 -23.1%, COCCNC(=O)CSc1nc(-c2ccccc2)[nH]c1-c1ccc(OC)cc1 -10.7%, C[C@@H]1CC[C@@]2(OC1)OC1CC3C4CC=C5CC(O)CCC5(C)C4CCC3(C)C1[C@@H]2C (stereo partly specified) -7.14%, CCOc1ccc(NC(=O)C2CCCN(S(=O)(=O)c3c(C)noc3/C=C/N(C)C)C2)cc1 (stereo unspecified) -28.1%, COc1cccc(-n2c(SCC(=O)Nc3nnc(C)s3)nc3c([nH]c4ccccc43)c2=O)c1 -6.08%, Fc1ccc2[nH]c(-c3cccs3)cc2c1 7.5%, CC(C)Cn1c(=O)c2sccc2n2c(CCCC(=O)N3CCN(c4ccc(F)cc4)CC3)nnc12 -6.7%, O=C(Nc1cccc(C(F)(F)F)c1)c1cc2nc(-c3ccc4c(c3)OCO4)cc(C(F)(F)F)n2n1 -14.3% [at 11.5 µM], Cc1ccc(-c2nc(CSc3nncn4c3cc3occc34)c(C)o2)cc1 10.2%, NCCc1nc2cccnc2n1-c1ccccc1 -2.32%, COc1ccc(C)cc1NC(=O)N1CC(C)Sc2ccccc21 (stereo unspecified) -0.698%, CC(C)(C)C(O)/C=C/c1ccc2c(c1)OCO2 (stereo unspecified) 6.79%, O=C(CCN1CCN2CCCC2C1)N1c2ccccc2Sc2ccc(Cl)cc21 (stereo unspecified) -9.03% [at 25.2 µM], C[C@@H](C1=C(CCN(C)C)Cc2ccccc21)c1ccccn1 0.832%, Cc1ccc(OCC(=O)NCC2(N(C)C)CCCCC2)cc1C -10.5%, Cc1ccc(C)c(NC(=O)Cn2c(=O)n(-c3ccc(CC(=O)NCC4CCCO4)cc3)c(=O)c3ccccc32)c1 (stereo unspecified) -2.34%, CCCCC(CC)COC(=O)c1ccccc1O (stereo unspecified) -3.95%, CCCOc1ccc(C(=O)NCC2OCCc3ccccc32)cc1 (stereo unspecified) 15.6%, Cc1ccc(NC(=O)c2c(C)nc3sc(C(=O)Nc4ccc(F)cc4)c(N)c3c2-c2ccc(C)o2)c(C)c1 2.33%, CC1CN(C(=O)CCC(=O)Nc2cc(F)ccc2F)c2ccccc2S1 (stereo unspecified) -22%, O=C(O)c1c(O)c(-c2ccccc2)nc2ccccc12 7.27%, COc1ccc(-n2c(SCC(=O)N3CCc4ccccc43)nc3c([nH]c4ccccc43)c2=O)cc1 -7.93%, COc1ccc(C(=O)Nc2ccc3oc(-c4ccc(F)cc4Cl)nc3c2)cc1 -2.8%, CCCc1nc2ccccc2n1CC(O)COc1ccc(C(=O)OC)cc1 (stereo unspecified) -10.4%, CCCn1c(=O)c2[nH]c(C34CC5CC3C[C@@H](C5)C4)nc2n(CCC)c1=O 4.41%, CCC1CCCCN1S(=O)(=O)c1ccc(C(=O)Nc2sc3c(c2C(N)=O)CCC3)cc1 (stereo unspecified) -25.1%, O=C(CSc1nnc(-c2ccccc2F)o1)Nc1cccc(C(F)(F)F)c1 6.88%, COCCCN1C(=O)c2ccccc2CC1(C)C(=O)NC1CCCCC1 (stereo unspecified) -14.7%, COc1ccc(C2C(C(=O)Nc3ccc(Cl)cc3)=C(C)Nc3nc(SCc4cccc(C)c4)nn32)cc1OC (stereo unspecified) 1.51%, CC(C)(C)OC(=O)N1CCC(c2c(C(=O)N3CCN(c4ccccn4)CC3)cnn2-c2ccccc2)CC1 1.45%, COc1ccc(-c2nc(C)c(CCNC(=O)c3cccs3)s2)cc1OC 18.8%, COc1ccccc1CNc1cc(C)nc2nc(-c3ccc(C)cc3)nn12 -19.9%, c1ccc(-c2noc(-c3cccnc3NCc3ccco3)n2)cc1 62%

From PubChem BioAssay AID1508623 (National Center for Advancing Translational Sciences (NCATS), 2021)
